Results on 1 molecule are retold here after the supplement of paper PMC8728848.

The other results are listed elsewhere or left out.

Assay in all cases: glycan array binding signal (z-score within array); higher = stronger binding
What all share (settings): glycan notation: IUPAC condensed, linker removed

Experiment [1] has as its target Gal(b1-4)GlcNAc(b1-2)[Gal(b1-4)GlcNAc(b1-6)]Man(a1-6)[Gal(b1-4)GlcNAc(b1-2)Man(a1-3)]Man(b1-4)GlcNAc(b1-4)[Fuc(a1-6)]GlcNAc. The procedure, abridged:
(§1)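 The binding signal is a Z-score computed within each array and averaged over linkers. Arrays of the same protein sequence at different concentrations or buffers were also averaged together. Data originate from 3228 arrays in the Consortium for Functional Glycomics database, kept only where the protein sequence was available.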

Experiment [2] has as its target Gal(b1-4)GlcNAc(b1-2)[Gal(b1-4)GlcNAc(b1-6)]Man(a1-6)[GlcNAc(b1-4)][Gal(b1-4)GlcNAc(b1-2)Man(a1-3)]Man(b1-4)GlcNAc(b1-4)GlcNAc. The procedure, abridged:
as §1

Experiment [3] concerns the target Gal(b1-4)GlcNAc(b1-2)[Gal(b1-4)GlcNAc(b1-6)]Man(a1-6)[GlcNAc(b1-4)][Gal(b1-4)GlcNAc(b1-2)[Gal(b1-4)GlcNAc(b1-4)]Man(a1-3)]Man(b1-4)GlcNAc(b1-4)[Fuc(a1-6)]GlcNAc. The procedure, abridged:
as §1

Experiment [4] concerns the target Gal(b1-4)GlcNAc(b1-3)Gal(b1-3)GalNAc. The procedure, abridged:
as §1

The target of experiment [5] is Gal(b1-4)GlcNAc(b1-3)Gal(b1-3)GlcNAc. The procedure, abridged:
as §1

The target in experiment [6] is Gal(b1-4)GlcNAc(b1-3)Gal(b1-4)Glc. The procedure, abridged: as §1
Experiment [7] concerns the target Gal(b1-4)GlcNAc(b1-3)Gal(b1-4)GlcNAc. The procedure, abridged:
as §1

The target of experiment [8] is Gal(b1-4)GlcNAc(b1-3)Gal(b1-4)GlcNAc(b1-2)Man(a1-3)[Gal(b1-4)GlcNAc(b1-3)Gal(b1-4)GlcNAc(b1-2)Man(a1-6)]Man(b1-4)GlcNAc(b1-4)GlcNAc. The procedure, abridged:
as §1

Experiment [9] concerns the target Gal(b1-4)GlcNAc(b1-3)Gal(b1-4)GlcNAc(b1-2)Man(a1-3)[Gal(b1-4)GlcNAc(b1-3)Gal(b1-4)GlcNAc(b1-2)Man(a1-6)]Man(b1-4)GlcNAc(b1-4)[Fuc(a1-6)]GlcNAc. In a few lines:
as §1

In experiment [10] the target is Gal(b1-4)GlcNAc(b1-3)Gal(b1-4)GlcNAc(b1-2)[Gal(b1-4)GlcNAc(b1-3)Gal(b1-4)GlcNAc(b1-6)]Man(a1-6)[Gal(b1-4)GlcNAc(b1-3)Gal(b1-4)GlcNAc(b1-2)Man(a1-3)]Man(b1-4)GlcNAc(b1-4)GlcNAc. In a few lines:
as §1

In experiment [11] the target is Gal(b1-4)GlcNAc(b1-3)Gal(b1-4)GlcNAc(b1-2)[Gal(b1-4)GlcNAc(b1-3)Gal(b1-4)GlcNAc(b1-6)]Man(a1-6)[Gal(b1-4)GlcNAc(b1-3)Gal(b1-4)GlcNAc(b1-2)Man(a1-3)]Man(b1-4)GlcNAc(b1-4)[Fuc(a1-6)]GlcNAc. The procedure, abridged: as §1
The target of experiment [12] is Gal(b1-4)GlcNAc(b1-3)Gal(b1-4)GlcNAc(b1-3)Gal(b1-4)GlcNAc. The procedure, abridged: as §1
Experiment [13] deals with Gal(b1-4)GlcNAc(b1-3)Gal(b1-4)GlcNAc(b1-3)Gal(b1-4)GlcNAc(b1-2)Man(a1-3)[Gal(b1-4)GlcNAc(b1-3)Gal(b1-4)GlcNAc(b1-3)Gal(b1-4)GlcNAc(b1-2)Man(a1-6)]Man(b1-4)GlcNAc(b1-4)GlcNAc. In a few lines:
as §1

The target in experiment [14] is Gal(b1-4)GlcNAc(b1-3)Gal(b1-4)GlcNAc(b1-3)Gal(b1-4)GlcNAc(b1-2)Man(a1-3)[Gal(b1-4)GlcNAc(b1-3)Gal(b1-4)GlcNAc(b1-3)Gal(b1-4)GlcNAc(b1-2)Man(a1-6)]Man(b1-4)GlcNAc(b1-4)[Fuc(a1-6)]GlcNAc. In a few lines: as §1
The target of experiment [15] is Gal(b1-4)GlcNAc(b1-3)Gal(b1-4)GlcNAc(b1-3)Gal(b1-4)GlcNAc(b1-2)[Gal(b1-4)GlcNAc(b1-3)Gal(b1-4)GlcNAc(b1-3)Gal(b1-4)GlcNAc(b1-6)]Man(a1-6)[Gal(b1-4)GlcNAc(b1-3)Gal(b1-4)GlcNAc(b1-3)Gal(b1-4)GlcNAc(b1-2)Man(a1-3)]Man(b1-4)GlcNAc(b1-4)[Fuc(a1-6)]GlcNAc. In a few lines:
as §1

Experiment [16] addresses Gal(b1-4)GlcNAc(b1-3)Gal(b1-4)GlcNAc(b1-3)Gal(b1-4)GlcNAc(b1-3)Gal(b1-4)GlcNAc(b1-2)Man(a1-3)[Gal(b1-4)GlcNAc(b1-3)Gal(b1-4)GlcNAc(b1-3)Gal(b1-4)GlcNAc(b1-3)Gal(b1-4)GlcNAc(b1-2)Man(a1-6)]Man(b1-4)GlcNAc(b1-4)GlcNAc. The procedure, abridged:
as §1

Experiment [17] deals with Gal(b1-4)GlcNAc(b1-3)Gal(b1-4)GlcNAc(b1-3)Gal(b1-4)GlcNAc(b1-3)Gal(b1-4)GlcNAc(b1-2)Man(a1-3)[Gal(b1-4)GlcNAc(b1-3)Gal(b1-4)GlcNAc(b1-3)Gal(b1-4)GlcNAc(b1-3)Gal(b1-4)GlcNAc(b1-2)Man(a1-6)]Man(b1-4)GlcNAc(b1-4)[Fuc(a1-6)]GlcNAc. The procedure, abridged: as §1
Experiment [18] deals with Gal(b1-4)GlcNAc(b1-3)Gal(b1-4)GlcNAc(b1-3)Gal(b1-4)GlcNAc(b1-3)Gal(b1-4)GlcNAc(b1-2)[Gal(b1-4)GlcNAc(b1-3)Gal(b1-4)GlcNAc(b1-3)Gal(b1-4)GlcNAc(b1-3)Gal(b1-4)GlcNAc(b1-6)]Man(a1-6)[Gal(b1-4)GlcNAc(b1-3)Gal(b1-4)GlcNAc(b1-3)Gal(b1-4)GlcNAc(b1-3)Gal(b1-4)GlcNAc(b1-2)Man(a1-3)]Man(b1-4)GlcNAc(b1-4)[Fuc(a1-6)]GlcNAc. The procedure, abridged:
as §1

Experiment [19] concerns the target Gal(b1-4)GlcNAc(b1-3)Gal(b1-4)GlcNAc(b1-3)Gal(b1-4)GlcNAc(b1-3)Gal(b1-4)GlcNAc(b1-3)Gal(b1-4)GlcNAc(b1-2)Man(a1-3)[Gal(b1-4)GlcNAc(b1-3)Gal(b1-4)GlcNAc(b1-3)Gal(b1-4)GlcNAc(b1-3)Gal(b1-4)GlcNAc(b1-3)Gal(b1-4)GlcNAc(b1-2)Man(a1-6)]Man(b1-4)GlcNAc(b1-4)GlcNAc. In a few lines: as §1
Experiment [20] concerns the target Gal(b1-4)GlcNAc(b1-3)Gal(b1-4)GlcNAc(b1-3)Gal(b1-4)GlcNAc(b1-3)Gal(b1-4)GlcNAc(b1-3)Gal(b1-4)GlcNAc(b1-2)Man(a1-3)[Gal(b1-4)GlcNAc(b1-3)Gal(b1-4)GlcNAc(b1-3)Gal(b1-4)GlcNAc(b1-3)Gal(b1-4)GlcNAc(b1-3)Gal(b1-4)GlcNAc(b1-2)Man(a1-6)]Man(b1-4)GlcNAc(b1-4)[Fuc(a1-6)]GlcNAc. The procedure, abridged:
as §1

The target of experiment [21] is Gal(b1-4)GlcNAc(b1-3)Gal(b1-4)GlcNAc(b1-3)Gal(b1-4)GlcNAc(b1-3)Gal(b1-4)GlcNAc(b1-3)Gal(b1-4)GlcNAc(b1-2)[Gal(b1-4)GlcNAc(b1-3)Gal(b1-4)GlcNAc(b1-3)Gal(b1-4)GlcNAc(b1-3)Gal(b1-4)GlcNAc(b1-3)Gal(b1-4)GlcNAc(b1-6)]Man(a1-6)[Gal(b1-4)GlcNAc(b1-3)Gal(b1-4)GlcNAc(b1-3)Gal(b1-4)GlcNAc(b1-3)Gal(b1-4)GlcNAc(b1-3)Gal(b1-4)GlcNAc(b1-2)Man(a1-3)]Man(b1-4)GlcNAc(b1-4)[Fuc(a1-6)]GlcNAc. In a few lines:
as §1

For experiment [22], the target named is Gal(b1-4)GlcNAc(b1-3)Gal(b1-4)GlcNAc(b1-3)Gal(b1-4)GlcNAc(b1-3)Gal(b1-4)GlcNAc(b1-3)Gal(b1-4)GlcNAc(b1-3)Gal(b1-4)GlcNAc(b1-2)Man(a1-3)[Gal(b1-4)GlcNAc(b1-3)Gal(b1-4)GlcNAc(b1-3)Gal(b1-4)GlcNAc(b1-3)Gal(b1-4)GlcNAc(b1-3)Gal(b1-4)GlcNAc(b1-3)Gal(b1-4)GlcNAc(b1-2)Man(a1-6)]Man(b1-4)GlcNAc(b1-4)GlcNAc. In a few lines: as §1
The target in experiment [23] is Gal(b1-4)GlcNAc(b1-3)Gal(b1-4)GlcNAc(b1-3)GalNAc. The procedure, abridged: as §1

B1: Sebin1 (Coprinopsis cinerea), A8PEE3 (protein)
chain: MTSPFYAHIHNVQDDNTWRFTLIFANRATADEWWRAISEAPANTSIAKSITRVTPQYYTHDVNIWNIWNFFADGNIKSISERFRGRLFIVLENDRGGRGITVIPPVPIVDHVSGNWFYIRSKTAPHLFWYYDERRSSIYASKEKRTRFKISIRNPSSQTPKNAIMINTDDVTIHIKENLYVGVDNNLGHIIPTRAYRTFKFGELESGAIAGFDVVENIEERCSSTFDGASLSISGPDSSSPGEPWELV
On to B1, for which the “glycan array binding signal (z-score)” value in [1] is 0.018; in experiment [2], 0.362; in experiment [3] it was 0.02; in [4] it was 1.23; in experiment [5] it was -0.381; in [6], -0.182. Also, the “glycan array binding signal (z-score)” value is -0.364 in [7]; 0.237 in experiment [8]; 0.498 in experiment [9]; -0.077 in experiment [10]; 1.28 in experiment [11]; -0.366 in experiment [12]. The “glycan array binding signal (z-score)” value in [13] was found to be 0.354; in experiment [14], 13.4; in experiment [15] it was 1.31; in experiment [16], 0.154; in experiment [17], 6.4; in experiment [18], 2.44. Also, the “glycan array binding signal (z-score)” value in [19] is 0.513; in experiment [20] it was 2.62; in experiment [21] it was 2.27; in [22], 0.452; in experiment [23], -0.309.
